Laboratory results: PMC5836133
Some of the results follow. At the low end of the ranking the order means little.

tested on: T1, GST-NbGlk1(82-244); assay: protein-binding microarray; conditions: NbGlk1 is a Golden2-like transcription factor of Nicotiana benthamiana; high values mean tight binding; most listed sequences are background and not binding sites; double strand, one strand shown;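 note: rank-based score ranging −0.5 to +0.5 with E above 0.45 taken as significant binding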
T1 sequence: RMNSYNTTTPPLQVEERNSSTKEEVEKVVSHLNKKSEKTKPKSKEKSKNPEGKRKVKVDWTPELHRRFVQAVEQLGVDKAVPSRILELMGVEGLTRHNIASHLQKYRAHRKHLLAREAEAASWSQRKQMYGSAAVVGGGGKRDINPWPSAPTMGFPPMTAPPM

| Sequence | binding signal [E-score] |
| --- | --- |
| AGACTTTG | -0.0551 |
| ACAGATCC | 0.234 |
| CACAGCAA | 0.123 |
| ACGCAGCT | -0.239 |
| AGGACCAT | -0.168 |
| CAAGCCGC | -0.248 |
| ATGCATTA | -0.0288 |
| AGCACTCA | 0.0146 |
| AAGGGTAT | 0.0646 |
| AATATTGA | 0.222 |
| AACGTCCT | -0.253 |
| CAATGCGG | -0.159 |
| ACTAATGA | 0.00719 |
| AGAGTTAC | -0.00533 |
| ATAGGGAG | -0.0387 |
| ACGCTTTA | 0.0231 |
| ACTGAAAC | 0.0347 |
| AACCTCTC | -0.255 |
| ATGTAGTC | -0.129 |
| AGTGACGG | -0.213 |
| ATTTACGC | 0.168 |
| CAGAACAC | -0.161 |
| AAAATAAC | 0.191 |
| ATTTGCAG | 0.269 |
| ATACTCTC | 0.163 |

| Sequence | binding signal [E-score] |
| --- | --- |
| AGTTACAT | 0.145 |
| AAGACTTG | -0.0477 |
| AAGTCAGC | -0.15 |
| ACTGGGCA | -0.242 |
| ACTGATTC | 0.285 |
| ACATGAGA | 0.198 |
| ACATGAAG | -0.053 |
| AATATGTC | 0.115 |
| ACTACTCA | -0.0238 |
| ACTTCAAG | -0.136 |
| ACAGGGAC | -0.154 |
| ATGGGAAA | 0.0974 |
| AGATCCCA | 0.219 |
| AAAGATTC | 0.401 |
| AGCGTTTA | -0.105 |
| AATCCCTC | 0.293 |
| ATATGCAG | 0.169 |
| AGACCCCT | -0.225 |
| AAGTATAT | 0.115 |
| CAAAGACC | -0.117 |
| CACAGCGC | -0.0588 |
| AAGCTTGG | -0.0876 |
| AAATTGTG | 0.0929 |
| ACTCTTTC | -0.0578 |
| ACAAGTTC | -0.169 |

| Sequence | binding signal [E-score] |
| --- | --- |
| ACCAAGTC | -0.189 |
| ATGCTAAA | 0.0528 |
| ATCATAGG | 0.0467 |
| ATATTTTG | 0.274 |
| ACTTCCGC | -0.165 |
| ACGGTTCT | -0.115 |
| AGGGCTGC | -0.244 |
| ATCATGAC | 0.0994 |
| AACGACGC | -0.211 |
| ACTATAGG | 0.00817 |
| CAGATGTC | -0.0223 |
| ATAGCGTC | -0.0235 |
| CACCAAAG | 0.0206 |
| ATCGGGCC | -0.178 |
| ACATTCAA | 0.0591 |
| ATCTACAA | 0.205 |
| ACAGTCAC | -0.174 |
| AAAGGTCA | -0.218 |
| ACCTACAG | -0.164 |
| ATTACCGA | 0.152 |
| AACGTTAA | 0.0623 |
| ATACCCGA | 0.0608 |
| ATAAGTTG | -0.000199 |
| ACTGGTCC | -0.226 |
| ATGCGGCG | -0.13 |

| Sequence | binding signal [E-score] |
| --- | --- |
| CAAGAAGC | -0.115 |
| ATCAATCA | 0.169 |
| ACGGGAGG | -0.0577 |
| AGATGATG | -0.0199 |
| ACTTCCTC | -0.162 |
| AGACTCCG | -0.162 |
| AACTCGGG | -0.0923 |
| AACCTCAG | -0.154 |
| AATGTACC | -0.0313 |
| AGGAACGC | -0.21 |
| ACCATAAT | 0.18 |
| AATTAGCA | 0.121 |
| ACACGCCT | -0.155 |
| AACGTGAT | 0.156 |
| ACCGAGCT | -0.258 |
| AGGATCCG | 0.26 |
| ACCGTCCC | -0.0387 |
| ACCAAGCT | -0.133 |
| ATTGACTC | -0.122 |
| ACTCGGAT | 0.252 |
| AATGATCC | 0.0806 |
| ATCAAGAG | 0.214 |
| ACTTCCAA | -0.037 |
| AGATTAGA | 0.129 |
| AGCCCATG | -0.165 |

| Sequence | binding signal [E-score] |
| --- | --- |
| ATCGCTCC | 0.188 |
| ACTGCAAC | 0.0226 |
| AATGCAAA | 0.0558 |
| ACAGCGCT | -0.0789 |
| AGATATCG | 0.462 |
| AGTCAGGA | 0.144 |
| ATGGAACG | -0.104 |
| AAAATCTA | 0.458 |
| CACCATGC | -0.117 |
| ATCAGAAC | 0.162 |
| AGGTATAT | 0.0144 |
| ACATAGTA | 0.0347 |
| ATCCTCGC | 0.205 |
| AAGTGACA | 0.00237 |
| AACTCGGA | -0.103 |
| AATTTATC | 0.113 |
| AAAGCGGA | 0.11 |
| AAACGCAC | -0.197 |
| ATAAGCCC | -0.228 |
| ATTGCACC | 0.222 |
| AAATATAC | 0.225 |
| AGAGAGAA | -0.0707 |
| ACAACGCT | -0.15 |
| AAGCGTCA | -0.0257 |
| ACTCGCAG | -0.0533 |

| Sequence | binding signal [E-score] |
| --- | --- |
| AGCGCAAA | 0.00611 |
| AAAGTGGC | -0.175 |
| ACCAACGT | -0.138 |
| AAATCACT | 0.26 |
| ATACTGTG | 0.129 |
| CAATGTGC | -0.168 |
| AGCGGTGC | -0.252 |
| AGGGGTGC | -0.26 |
| CAACTATC | -0.0754 |
| CACATATC | 0.207 |
| AATTTTCA | 0.228 |
| AAGCACCA | -0.247 |
| AGAGCTTG | -0.231 |
| AAAGCACC | -0.243 |
| ACTTCATA | 0.0422 |
| AGTAATTC | 0.0662 |
| AAGAAGGC | -0.221 |
| CAGAGGAC | -0.162 |
| CAACTTCA | 0.0464 |
| ACCCATAT | 0.129 |
| CACGGGAG | -0.104 |
| CAAACCGA | -0.0156 |
| ATGCGCGA | 0.128 |
| ATTCTCAC | 0.299 |
| ACCCGTCT | -0.146 |

| Sequence | binding signal [E-score] |
| --- | --- |
| ACACAGTA | 0.0389 |
| CACCTTAG | -0.152 |
| AGCGCCTG | -0.128 |
| ATAACACC | 0.0245 |
| AAGTATGT | 0.0353 |
| AACTCTTA | 0.00102 |
| ACGTGGTC | -0.201 |
| ATAATCAC | 0.214 |
| ACCTGGTC | -0.255 |
| ACAAGTTG | -0.124 |
| AGGGGCTC | -0.297 |
| AAAGTAAA | 0.0977 |
| AATACACA | 0.0883 |
| ACTGAACT | -0.0987 |
| ACCGATTC | 0.21 |
| AAAAACCC | -0.0323 |
| CAACCGCG | 0.0348 |
| ACGTGGAT | 0.283 |
| AGATACTA | 0.194 |
| ATACTTCC | 0.018 |
| CAAGCGGG | -0.129 |
| AACTCACT | -0.0993 |
